The supplement of paper PMC8813932
Structures can show the parent of a compound that is named as a salt. ± gives the standard deviation of the averaged measurements. This is one part of the list. Many values rest on one well or one pass, so single values are uncertain.

What was measured:
Experiment in all cases: log2 surviving fraction relative to plate median (drug vs vehicle, or drug+dl922-947 vs dl922-947 alone); ovarian cancer lines: OVCAR4 is platinum-sensitive while Ov4Cis resists cisplatin and Ov4Carbo carboplatin; higher = more cell survival
Conditions in all cases: compound concentration: 10 uM, 192 h
OVCAR4 = tested on: OVCAR4
Ov4Carbo = tested on: Ov4Carbo
Ov4Cis = tested on: Ov4Cis
[1] = dl922-947 oncolytic adenovirus co-treatment: MOI 10
[2] = dl922-947 oncolytic adenovirus co-treatment: none

Structure (SMILES): Nc1cc(N2CCCCC2)nc(N)[n+]1[O-] [Minoxidil]
- log2 surviving fraction (OVCAR4; [1]): -0.216 ± 1
- log2 surviving fraction (OVCAR4; [2]): 0.32 ± 0.27
- log2 surviving fraction (Ov4Carbo; [1]): -0.301
- log2 surviving fraction (Ov4Carbo; [2]): 1.13
- log2 surviving fraction (Ov4Cis; [1]): -0.286
- log2 surviving fraction (Ov4Cis; [2]): -0.158

Structure (SMILES): COc1cc2ncnc(Nc3ccc(F)c(Cl)c3)c2cc1OCCCN1CCOCC1 [Gefitinib (Iressa)]
- log2 surviving fraction (OVCAR4; [1]): 0.937 ± 0.36
- log2 surviving fraction (OVCAR4; [2]): -3.23 ± 4.6
- log2 surviving fraction (Ov4Carbo; [1]): 1.31
- log2 surviving fraction (Ov4Carbo; [2]): 0.421
- log2 surviving fraction (Ov4Cis; [1]): 0.568
- log2 surviving fraction (Ov4Cis; [2]): 0.959

Structure (SMILES): CNCC(O)c1ccc(O)c(O)c1 (racemic) [DL-Adrenaline]
- log2 surviving fraction (OVCAR4; [1]): -0.699 ± 0.25
- log2 surviving fraction (OVCAR4; [2]): -1.4 ± 2
- log2 surviving fraction (Ov4Carbo; [1]): -1.47
- log2 surviving fraction (Ov4Carbo; [2]): -0.365
- log2 surviving fraction (Ov4Cis; [1]): -0.623
- log2 surviving fraction (Ov4Cis; [2]): -0.403

Structure (SMILES): CC[C@H]1OC(=O)[C@H](C)[C@@H](O[C@H]2C[C@@](C)(OC)[C@@H](O)[C@H](C)O2)[C@H](C)[C@@H](O[C@@H]2O[C@H](C)C[C@H](N(C)C)[C@H]2O)[C@](C)(OC)C[C@@H](C)C(=O)[C@H](C)[C@@H](O)[C@]1(C)O [Clarithromycin (Biaxin, Klacid)]
- log2 surviving fraction (OVCAR4; [1]): 0.0431 ± 0.15
- log2 surviving fraction (OVCAR4; [2]): -0.257 ± 1.4
- log2 surviving fraction (Ov4Carbo; [1]): 0.359
- log2 surviving fraction (Ov4Carbo; [2]): 0.207
- log2 surviving fraction (Ov4Cis; [1]): 0.24
- log2 surviving fraction (Ov4Cis; [2]): 1.54

Structure (SMILES): Cc1cccc(C)c1OCC(C)N (configuration not stated) [Mexiletine HCl]
- log2 surviving fraction (OVCAR4; [1]): 0.769 ± 0.5
- log2 surviving fraction (OVCAR4; [2]): 1.03 ± 0.38
- log2 surviving fraction (Ov4Carbo; [1]): 0.0224
- log2 surviving fraction (Ov4Carbo; [2]): -0.0501
- log2 surviving fraction (Ov4Cis; [1]): -0.226
- log2 surviving fraction (Ov4Cis; [2]): 0.404

Structure (SMILES): CCc1cc(C(N)=S)ccn1 [Ethionamide]
- log2 surviving fraction (OVCAR4; [1]): -0.338 ± 0.87
- log2 surviving fraction (OVCAR4; [2]): 0.391 ± 1.2
- log2 surviving fraction (Ov4Carbo; [1]): -0.288
- log2 surviving fraction (Ov4Carbo; [2]): 0.808
- log2 surviving fraction (Ov4Cis; [1]): -1.02
- log2 surviving fraction (Ov4Cis; [2]): 1.2

Structure (SMILES): Oc1c(Br)cc(Br)c2cccnc12 [Broxyquinoline]
- log2 surviving fraction (OVCAR4; [1]): -2.7 ± 0.21
- log2 surviving fraction (OVCAR4; [2]): -1.4 ± 0.25
- log2 surviving fraction (Ov4Carbo; [1]): -2.97
- log2 surviving fraction (Ov4Carbo; [2]): -0.977
- log2 surviving fraction (Ov4Cis; [1]): -2.15
- log2 surviving fraction (Ov4Cis; [2]): 0.0368

Structure (SMILES): CC[C@]1(O)C[C@H]2CN(CCc3c([nH]c4ccccc34)[C@@](C(=O)OC)(c3cc4c(cc3OC)N(C=O)[C@H]3[C@@](O)(C(=O)OC)[C@H](OC(C)=O)[C@]5(CC)C=CCN6CC[C@]43[C@@H]65)C2)C1 [Vincristine]
- log2 surviving fraction (OVCAR4; [1]): -5.37 ± 0.12
- log2 surviving fraction (OVCAR4; [2]): -6.74 ± 4.4
- log2 surviving fraction (Ov4Carbo; [1]): -4.6
- log2 surviving fraction (Ov4Carbo; [2]): -9.47
- log2 surviving fraction (Ov4Cis; [1]): -5.39
- log2 surviving fraction (Ov4Cis; [2]): -9.89

Structure (SMILES): Cc1c(N(C)C)c(=O)n(-c2ccccc2)n1C [Amidopyrine]
- log2 surviving fraction (OVCAR4; [1]): 0.0441 ± 0.1
- log2 surviving fraction (OVCAR4; [2]): 0.266 ± 0.38
- log2 surviving fraction (Ov4Carbo; [1]): -0.925
- log2 surviving fraction (Ov4Carbo; [2]): -1.02
- log2 surviving fraction (Ov4Cis; [1]): 0.272
- log2 surviving fraction (Ov4Cis; [2]): -0.12

Structure (SMILES): O=C(O)/C=C/c1ccc(Cn2ccnc2)cc1 [Ozagrel HCl]
- log2 surviving fraction (OVCAR4; [1]): 0.881 ± 0.7
- log2 surviving fraction (OVCAR4; [2]): 1.04 ± 1
- log2 surviving fraction (Ov4Carbo; [1]): 0.146
- log2 surviving fraction (Ov4Carbo; [2]): 0.223
- log2 surviving fraction (Ov4Cis; [1]): -0.966
- log2 surviving fraction (Ov4Cis; [2]): 0.608

Structure (SMILES): CCc1oc2ccccc2c1C(=O)c1cc(Br)c(O)c(Br)c1 [Benzbromarone]
- log2 surviving fraction (OVCAR4; [1]): 0.762 ± 1.1
- log2 surviving fraction (OVCAR4; [2]): 0.673 ± 0.097
- log2 surviving fraction (Ov4Carbo; [1]): -0.148
- log2 surviving fraction (Ov4Carbo; [2]): 0.231
- log2 surviving fraction (Ov4Cis; [1]): 0.311
- log2 surviving fraction (Ov4Cis; [2]): 0.0674

Structure (SMILES): C[N+]1(C)CCOC(O)(c2ccc(-c3ccc(C4(O)C[N+](C)(C)CCO4)cc3)cc2)C1 (configuration not stated) [Hemicholinium Bromide]
- log2 surviving fraction (OVCAR4; [1]): 0.181 ± 0.36
- log2 surviving fraction (OVCAR4; [2]): 0.342 ± 1.1
- log2 surviving fraction (Ov4Carbo; [1]): -0.148
- log2 surviving fraction (Ov4Carbo; [2]): 0.0572
- log2 surviving fraction (Ov4Cis; [1]): 0.562
- log2 surviving fraction (Ov4Cis; [2]): 0.473

Structure (SMILES): CC(=O)OCC(=O)[C@@]12OC(C)(C)O[C@@H]1C[C@H]1[C@@H]3C[C@H](F)C4=CC(=O)C=C[C@]4(C)[C@@]3(F)[C@@H](O)C[C@@]12C [Fluocinonide (Vanos)]
- log2 surviving fraction (OVCAR4; [1]): 1 ± 0.54
- log2 surviving fraction (OVCAR4; [2]): -0.195 ± 0.77
- log2 surviving fraction (Ov4Carbo; [1]): 0.821
- log2 surviving fraction (Ov4Carbo; [2]): 0.491
- log2 surviving fraction (Ov4Cis; [1]): 1.32
- log2 surviving fraction (Ov4Cis; [2]): -0.992

Structure (SMILES): NC(=O)c1ncn([C@@H]2O[C@H](CO)[C@@H](O)[C@H]2O)n1 [Ribavirin (Copegus)]
- log2 surviving fraction (OVCAR4; [1]): 0.303 ± 0.4
- log2 surviving fraction (OVCAR4; [2]): 1.5 ± 0.71
- log2 surviving fraction (Ov4Carbo; [1]): 0.546
- log2 surviving fraction (Ov4Carbo; [2]): 0.057
- log2 surviving fraction (Ov4Cis; [1]): 0.281
- log2 surviving fraction (Ov4Cis; [2]): 0.759

Structure (SMILES): Cc1cn([C@H]2C[C@H](N=[N+]=[N-])[C@@H](CO)O2)c(=O)[nH]c1=O [Zidovudine (Retrovir)]
- log2 surviving fraction (OVCAR4; [1]): -1.19 ± 0.23
- log2 surviving fraction (OVCAR4; [2]): -0.61 ± 0.26
- log2 surviving fraction (Ov4Carbo; [1]): -0.661
- log2 surviving fraction (Ov4Carbo; [2]): -1.4
- log2 surviving fraction (Ov4Cis; [1]): -0.885
- log2 surviving fraction (Ov4Cis; [2]): 0.463

Structure (SMILES): Nc1ccn(C[C@@H](CO)OCP(=O)(O)O)c(=O)n1 [Cidofovir (Vistide)]
- log2 surviving fraction (OVCAR4; [1]): 0.356 ± 0.0065
- log2 surviving fraction (OVCAR4; [2]): -1.26 ± 0.43
- log2 surviving fraction (Ov4Carbo; [1]): -0.364
- log2 surviving fraction (Ov4Carbo; [2]): -0.000634
- log2 surviving fraction (Ov4Cis; [1]): 1.06
- log2 surviving fraction (Ov4Cis; [2]): -0.222

Structure (SMILES): N[C@H](Cc1ccccc1)C(=O)O [D-Phenylalanine]
- log2 surviving fraction (OVCAR4; [1]): 0.0302 ± 0.14
- log2 surviving fraction (OVCAR4; [2]): -0.628 ± 0.66
- log2 surviving fraction (Ov4Carbo; [1]): 0.845
- log2 surviving fraction (Ov4Carbo; [2]): 0.75
- log2 surviving fraction (Ov4Cis; [1]): 0.453
- log2 surviving fraction (Ov4Cis; [2]): 0.324
